# Measured values: the supplement of paper PMC8728848
# Some of the results follow.
# B1: BTL (Bryothamnion triquetrum) (protein)
# chain: ADPICGSSGYSCTTPAILTPKSPGSFPSGYSKVIVTGVGGSYSVYIHRPDGFKVYKASEGGCASFGSYSGGGNSEVGKYGSGGTVVAVACK
# Assays:
# Assay in all cases: glycan array binding signal (z-score within array); higher = stronger binding
# Conditions in all cases: glycan notation: IUPAC condensed, linker removed
# [1] = molecular target: Neu5Ac(a2-6)GlcNAc(b1-4)GlcNAc(b1-4)GlcNAc
# Summary of the method: (§1)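 Negative Z-scores can be read as non-binding. The Z-score is calculated within each array and then averaged across arrays of one protein sequence at different concentrations or buffers and across linkers. Arrays, 3228 in all, were curated from the Consortium for Functional Glycomics database and kept only where the protein sequence was available.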
# Neu5Ac(a2-8)Neu5Ac = molecular target: Neu5Ac(a2-8)Neu5Ac
# Summary of the method: as §1
# [2] = molecular target: Neu5Ac(a2-8)Neu5Ac(a2-3)Gal(b1-3)GalNAc(b1-4)[Neu5Ac(a2-3)]Gal(b1-4)Glc
# Summary of the method: as §1
# [3] = molecular target: Neu5Ac(a2-8)Neu5Ac(a2-3)Gal(b1-3)GalNAc(b1-4)[Neu5Ac(a2-8)Neu5Ac(a2-3)]Gal(b1-4)Glc
# Summary of the method: as §1
# [4] = molecular target: Neu5Ac(a2-8)Neu5Ac(a2-3)Gal(b1-4)Glc
# Summary of the method: as §1
# [5] = molecular target: Neu5Ac(a2-8)Neu5Ac(a2-3)Gal(b1-4)GlcNAc
# Summary of the method: as §1
# [6] = molecular target: Neu5Ac(a2-8)Neu5Ac(a2-3)[Gal(b1-3)GalNAc(b1-4)]Gal(b1-4)Glc
# Summary of the method: as §1
# [7] = molecular target: Neu5Ac(a2-8)Neu5Ac(a2-3)[GalNAc(b1-4)]Gal(b1-4)Glc
# Summary of the method: as §1
# [8] = molecular target: Neu5Ac(a2-8)Neu5Ac(a2-8)Neu5Ac
# Summary of the method: as §1
# [9] = molecular target: Neu5Ac(a2-8)Neu5Ac(a2-8)Neu5Ac(a2-3)Gal(b1-4)Glc
# Summary of the method: as §1
# [10] = molecular target: Neu5Ac(a2-8)Neu5Ac(a2-8)Neu5Ac(a2-3)[Gal(b1-3)GalNAc(b1-4)]Gal(b1-4)Glc
# Summary of the method: as §1
# [11] = molecular target: Neu5Ac(a2-8)Neu5Ac(a2-8)Neu5Ac(a2-3)[GalNAc(b1-4)]Gal(b1-4)Glc
# Summary of the method: as §1
# [12] = molecular target: Neu5Ac(a2-8)Neu5Ac(a2-8)Neu5Ac(a2-8)Neu5Ac(a2-3)[GalNAc(b1-4)]Gal(b1-4)Glc
# Summary of the method: as §1
# [13] = molecular target: Neu5Ac(a2-8)Neu5Gc(a2-3)Gal(b1-4)GlcNAc
# Summary of the method: as §1
# [14] = molecular target: Neu5Ac(b2-6)Gal(b1-4)GlcNAc
# Summary of the method: as §1
# Neu5Ac(b2-6)GalNAc = molecular target: Neu5Ac(b2-6)GalNAc
# Summary of the method: as §1
# [15] = molecular target: Neu5Ac9Ac(a2-3)Gal(b1-3)GlcNAc
# Summary of the method: as §1
# [16] = molecular target: Neu5Ac9Ac(a2-3)Gal(b1-4)GlcNAc
# Summary of the method: as §1
# [17] = molecular target: Neu5Ac9Ac(a2-6)Gal(b1-4)GlcNAc
# Summary of the method: as §1
# [18] = molecular target: Neu5Gc(a2-3)Gal(b1-3)GlcNAc
# Summary of the method: as §1
# [19] = molecular target: Neu5Gc(a2-3)Gal(b1-3)[Fuc(a1-4)]GlcNAc
# Summary of the method: as §1
# Neu5Gc(a2-3)Gal(b1-4)Glc = molecular target: Neu5Gc(a2-3)Gal(b1-4)Glc
# Summary of the method: as §1
# [20] = molecular target: Neu5Gc(a2-3)Gal(b1-4)GlcNAc
# Summary of the method: as §1
# [21] = molecular target: Neu5Gc(a2-3)Gal(b1-4)GlcNAc(b1-3)Gal(b1-4)GlcNAc(b1-2)Man(a1-3)[Neu5Gc(a2-3)Gal(b1-4)GlcNAc(b1-3)Gal(b1-4)GlcNAc(b1-2)Man(a1-6)]Man(b1-4)GlcNAc(b1-4)GlcNAc
# Summary of the method: as §1
# [22] = molecular target: Neu5Gc(a2-3)Gal(b1-4)[Fuc(a1-3)]GlcNAc
# Summary of the method: as §1
# [23] = molecular target: Neu5Gc(a2-6)Gal(b1-4)GlcNAc
# Summary of the method: as §1
# Neu5Gc(a2-6)GalNAc = molecular target: Neu5Gc(a2-6)GalNAc
# Summary of the method: as §1
# [24] = molecular target: Neu5Gc(a2-8)Neu5Ac(a2-3)Gal(b1-4)GlcNAc
# Summary of the method: as §1
# [25] = molecular target: Neu5Gc(a2-8)Neu5Gc(a2-3)Gal(b1-4)GlcNAc
# Summary of the method: as §1
# [26] = molecular target: Neu5Gc(a2-8)Neu5Gc(a2-3)Gal(b1-4)GlcNAc(b1-3)Gal(b1-4)GlcNAc
# Summary of the method: as §1
# [27] = molecular target: Neu5Gc(a2-8)Neu5Gc(a2-6)Gal(b1-4)GlcNAc
# Summary of the method: as §1
# [28] = molecular target: Neu5Gc(b2-6)Gal(b1-4)GlcNAc
# Summary of the method: as §1
binder,measurement,setting,value
B1,glycan array binding signal (z-score),[1],-0.259
same,glycan array binding signal (z-score),Neu5Ac(a2-8)Neu5Ac,-0.245
same,glycan array binding signal (z-score),[2],-0.211
same,glycan array binding signal (z-score),[3],-0.235
same,glycan array binding signal (z-score),[4],-0.281
same,glycan array binding signal (z-score),[5],-0.26
same,glycan array binding signal (z-score),[6],-0.191
same,glycan array binding signal (z-score),[7],-0.25
same,glycan array binding signal (z-score),[8],-0.236
same,glycan array binding signal (z-score),[9],-0.253
same,glycan array binding signal (z-score),[10],-0.259
same,glycan array binding signal (z-score),[11],-0.289
same,glycan array binding signal (z-score),[12],-0.275
same,glycan array binding signal (z-score),[13],-0.248
same,glycan array binding signal (z-score),[14],-0.201
same,glycan array binding signal (z-score),Neu5Ac(b2-6)GalNAc,-0.274
same,glycan array binding signal (z-score),[15],-0.208
same,glycan array binding signal (z-score),[16],-0.251
same,glycan array binding signal (z-score),[17],-0.259
same,glycan array binding signal (z-score),[18],-0.308
same,glycan array binding signal (z-score),[19],-0.207
same,glycan array binding signal (z-score),Neu5Gc(a2-3)Gal(b1-4)Glc,-0.28
same,glycan array binding signal (z-score),[20],-0.26
same,glycan array binding signal (z-score),[21],-0.087
same,glycan array binding signal (z-score),[22],-0.251
same,glycan array binding signal (z-score),[23],-0.277
same,glycan array binding signal (z-score),Neu5Gc(a2-6)GalNAc,-0.264
same,glycan array binding signal (z-score),[24],-0.243
same,glycan array binding signal (z-score),[25],-0.269
same,glycan array binding signal (z-score),[26],-0.276
same,glycan array binding signal (z-score),[27],-0.296
same,glycan array binding signal (z-score),[28],-0.269
